# Laboratory results from PubChem BioAssay AID485313 (National Center for Advancing Translational Sciences (NCATS), 2010).
# About 7,600 (2.4%) of roughly 320,000 compounds were called active. The shares of active, inactive and inconclusive entries below differ from those in the screen. The call rests on the fitted dose curve; in most records, active means well fitted activation curve with a large enough effect; inconclusive means small, poorly fitted or top-dose-only effect; inactive means no such curve, though single readings can be large or run the other way. Potencies of inconclusive entries are left out as doubtful fits.
# Experiment: qHTS Assay for NPC1 Promoter Activators; further: nearly all actives have a fitted effect of over 60% in size;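 on activation: reporter is driven by a mutant NPC1 promoter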
# Settings: Huh7 NPC1 promoter luciferase reporter, 24 h; series mostly up to 9.22 µM
# Method in brief: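 In 1536-well qHTS, Huh7 cells harboring an NPC1 promoter–luciferase construct received compound for 24 h; activation was quantified by luminescence following luciferase reagent addition.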
# Potency means the concentration at half of the fitted maximal effect; tags describe the fitted curve by direction and shape.
row,Compound,Potency
1,O=C(COC(=O)Cc1n[nH]c(=O)c2ccccc12)NNC(=O)c1ccc(Cl)cc1,inactive
2,CCCCNC(=O)c1cc(-c2ccc(OC)cc2)on1,active: 3.98 µM
3,O=C(Nc1ccccc1O)c1ccc(NC(=O)C2CC2)cc1,active: 3.55 µM
4,COC(=O)c1sc(NC(=O)/C=C/c2ccc(C)o2)nc1C,"inconclusive [activator, partial curve]"
5,O=C(CN1CCN(C2CCS(=O)(=O)C2)CC1)N1N=C(c2ccc(Cl)cc2)CC1c1ccco1 (configuration not stated),inactive
6,Cc1ccc2nc(NC(=O)C3CC3C)sc2c1 (configuration not stated),active: 1.12 µM
7,Cn1c(O)c(N=Nc2ccccc2[N+](=O)[O-])c2ccccc21,active: 3.55 µM
8,Cc1ccc(C2NC(=O)c3c(sc4c3CCN(C)C4)N2)s1 (configuration not stated),"inconclusive [activator, single point]"
9,CCCC(=O)NCCc1c2n(c3ccc(OC)cc13)CCCc1ccccc1-2,inactive
10,COc1ccc(Cc2noc(CN(C)CC3CCN(Cc4ccccc4)CC3)n2)cc1OC,inactive
11,CCc1cc(Cn2nc(-c3ccccc3)cc2C(=O)NCC2CC2)on1,inactive
12,O=C(NCCc1ccccc1)C1CCN(c2ncccn2)CC1,inactive
13,COC(=O)c1nc2ccc(N3CCOCC3)cc2c(C)c1C(=O)OC,"inconclusive [activator, single point]"
14,COc1cc(N2Cc3ccccc3C2)ccc1C=O,"inconclusive [activator, full curve]"
15,Cc1cc(C)c(/C=C2\C(=O)Nc3ccccc32)[nH]1,"inconclusive [activator, partial curve]"
16,Cc1ccc(-n2c(C)c(C)c3c(NCCO)ncnc32)cc1,"inconclusive [activator, single point]"
17,CC(=O)Nc1ccc(N2C(=O)c3cccc4c(O)ccc(c34)C2=O)cc1,inactive
18,COC(=O)[C@@H](Cc1ccc(O)cc1)NC(=O)[C@H]1CCC(=O)N1C(=O)OCc1ccccc1,inactive
19,Cc1noc(C)c1COC(=O)c1ccc(-c2nc3ccccc3s2)s1,"inconclusive [activator, partial curve]"
20,C/C(=N\NC(=O)c1ccccc1)c1ccc2c(c1)OCO2,"inconclusive [activator, partial curve]"
21,O=C1CC(c2ccc(F)cc2)CC2=C1C=Nc1ccccc1N2 (configuration not stated),inactive
22,Fc1ccc(OCc2cc(-c3ccccc3)no2)cc1,active: 2.82 µM
23,COc1c(C)cc(Br)cc1C(=O)NCc1cccnc1,inactive
24,O=C(c1ccccc1)n1c(=S)nc2ccccn21,active: 1 µM
25,Cc1cccc(-c2cc3nc4c(c(N5CCOCC5)n3n2)CCCC4)c1,"inconclusive [activator, single point]"
26,Cc1cc(NC(=O)c2cccs2)ncc1NC(=O)C(C)C,active: 1.78 µM

row,Compound,Potency
1,CCCOc1ccc(-c2cnc(N)s2)cc1,"inconclusive [activator, partial curve]"
2,CCOc1ccc(NC(=O)c2ccc(N)cc2)cc1,"inconclusive [activator, partial curve]"
3,Cc1nnc(C)n1/N=C/c1c(O)ccc2ccccc12,inactive
4,CCc1nnc(NC(=O)C2COc3ccccc3O2)s1 (configuration not stated),active: 3.16 µM
5,O=C(c1cc2nc(-c3ccc(F)cc3)cc(C(F)(F)F)n2n1)N1CCCCC1c1cccnc1 (configuration not stated),inactive
6,COc1ccc(-c2cc(C(=O)Nc3c(C)n(C)n(-c4ccccc4)c3=O)no2)cc1,inactive
7,O=C(CCN1C(=O)S/C(=C/c2ccc(F)cc2)C1=O)Nc1ccc(O)c(C(=O)O)c1,inactive
8,CC(=NCc1ccco1)c1c(C(F)(F)F)[nH]n(-c2nc3ccccc3s2)c1=O,active: 2.24 µM
9,OCC1(CCOc2ccccc2)CCN(Cc2ccc(OC(F)F)cc2)CC1,inactive
10,Nc1nc(-c2ccc3c(c2)CCCC3)cs1,active: 2.24 µM
11,O=C(O)c1ccc2ncsc2c1,"inconclusive [activator, partial curve]"
12,O=C(NCC(=O)N1CCCCCC1)c1ccc(Cl)cc1,"inconclusive [activator, single point]"
13,CCOC(=O)C1=C(C)C/C(=N\NC(=O)c2ccccc2O)CC1,"inconclusive [activator, partial curve]"
14,COc1ccc2[nH]c(=O)c(CN(Cc3cccnc3)C(=S)NCC3CCCO3)cc2c1 (configuration not stated),inactive
15,NC(=O)C1CCN(c2nc(-c3cc4ccccc4o3)cs2)CC1,"inconclusive [activator, partial curve]"
16,CCOC(=O)Cc1csc(NC(=O)c2cc(C)c(C)s2)n1,"inconclusive [activator, partial curve]"
17,N#C/C(=C\c1c[nH]c2ccccc12)C(=O)NC1CC1,active: 3.55 µM
18,Cc1nc(NC(=O)CSc2nnnn2C)sc1C,"inconclusive [activator, partial curve]"
19,O=C(Oc1ccc(-c2cnc3ccccc3n2)cc1)c1ccco1,"inconclusive [activator, single point]"
20,Clc1ccc2[nH]cc(-c3nnnn3-c3ccccc3)c2c1,inactive
21,N#Cc1ccc(-c2cccnc2)nc1SCC(=O)c1ccccc1,"inconclusive [activator, partial curve]"
22,Cc1cccc(NC(=O)CSc2nccn2Cc2ccco2)c1C,"inconclusive [activator, single point]"
23,CCCCOc1ccc(C(=O)NCC(=O)N2CCN(Cc3ccc4c(c3)OCO4)CC2)cc1,inactive
24,Cc1nn(-c2ccccc2)c(Cl)c1/C=N/NC(=O)c1ccc(NS(=O)(=O)c2cccs2)cc1,"inconclusive [activator, partial curve]"
25,COc1ccc(Nc2nc(CC(C)=O)ns2)cc1,"inconclusive [activator, single point]"
26,CCCOc1ccc(NC(=O)C2CC(=O)N/C(=N/N=C(C)/C=C/c3ccc(N(C)C)cc3)S2)cc1 (configuration not stated),"inconclusive [activator, partial curve]"
